Legend:
[1] = target: GST-tagged GDP-loaded WT KRAS (amino acids 1-169) (Homo sapiens, UniProt P01116); assay: biochemical
[2] = target: GST-tagged GDP-loaded KRAS G12V (amino acids 1-169) (Homo sapiens, UniProt P01116, G12V); assay: biochemical

N#Cc1c(N)sc2c(F)ccc(-c3c(Cl)c4c5c(nc(OC[C@@]67CCCN6C[C@H](F)C7)nc5c3F)N3CCOC[C@H]3CO4)c12 (single isomer, unassigned) [Example 14-Isomer 1]
IC50 [1]: 14 nM
IC50 [2]: 15 nM

C#Cc1c(F)ccc2cc(O)cc(-c3cc4c5c(nc(OC[C@@]67CCCN6C[C@H](F)C7)nc5c3F)N3CCOC[C@H]3CO4)c12 [Example 2, 5-ethynyl-6-fluoro-4-((S)-4-fluoro-2-(((2R,7aS)-2-fluorotetrahydro-1H-pyrrolizin-7a(5H)-yl)methoxy)-8a,9,11,12-tetrahydro-8H-[1,4]oxazino[3′,4′:3,4][1,4]oxazepino[5,6,7-de]quinazolin-5-yl)naphthalen-2-ol]
IC50 [1]: 4.3 nM
IC50 [2]: 1.7 nM

C#Cc1c(F)ccc2cc(O)cc(-c3nc4c5c(nc(OCC67COC(C6)C7)nc5c3F)N3CCOC[C@H]3CO4)c12 [Example 9, (S)-4-(11-((2-oxabicyclo[2.1.1]hexan-4-yl)methoxy)-1-fluoro-5a,6,8,9-tetrahydro-5H-4,7-dioxa-3,9a,10,12-tetraazabenzo[4,5]cyclohepta[1,2,3-de]naphthalen-2-yl)-5-ethynyl-6-fluoronaphthalen-2-ol]
IC50 [1]: 18 nM
IC50 [2]: 24 nM

C#Cc1c(F)ccc2cc(O)cc(-c3nc4c5c(nc(OC[C@@]67CCCN6C[C@H](F)C7)nc5c3F)N3CCOCCC3CO4)c12 (stereo partly drawn) [Example 22, 5-ethynyl-6-fluoro-4-(1-fluoro-12-(((2R,7aS)-2-fluorotetrahydro-1H-pyrrolizin-7a(5H)-yl)methoxy)-5,5a,6,7,9,10-hexahydro-4,8-dioxa-3,10a,11,13-tetraazanaphtho[1,8-ab]heptalen-2-yl)naphthalen-2-ol]
IC50 [1]: 0.67 nM
IC50 [2]: 0.91 nM

Nc1cc(Cl)c(C(F)(F)F)c(-c2nc3c4c(nc(OC[C@@]56CCCN5C[C@H](F)C6)nc4c2F)N2CCOC[C@H]2CO3)c1 [Example 3, 3-chloro-5-((S)-1-fluoro-11-(((2R,7aS)-2-fluorotetrahydro-1H-pyrrolizin-7a(5H)-yl)methoxy)-5a,6,8,9-tetrahydro-5H-4,7-dioxa-3,9a,10,12-tetraazabenzo[4,5]cyclohepta[1,2,3-de]naphthalen-2-yl)-4-(trifluoromethyl)aniline]
IC50 [1]: 8 nM
IC50 [2]: 3 nM

N#Cc1c(N)sc2c(F)ccc(-c3c(Cl)c4c5c(nc(OC[C@@]67CCCN6C[C@H](F)C7)nc5c3F)N3CCOC[C@H]3CO4)c12 (single isomer, unassigned) [Example 14-Isomer 2]
IC50 [1]: 0.51 nM
IC50 [2]: 0.61 nM

Nc1cc(Cl)c(C(F)(F)F)c(-c2nc3c4c(nc(OC[C@@]56CCCN5C[C@H](F)C6)nc4c2F)N2CCOCCC2CO3)c1 (stereo partly drawn) [Example 21, 3-chloro-5-(1-fluoro-12-(((2R,7aS)-2-fluorotetrahydro-1H-pyrrolizin-7a(5H)-yl)methoxy)-5,5a,6,7,9,10-hexahydro-4,8-dioxa-3,10a,11,13-tetraazanaphtho[1,8-ab]heptalen-2-yl)-4-(trifluoromethyl)aniline]
IC50 [1]: 2.2 nM
IC50 [2]: 1.8 nM

Nc1cc(Cl)c(C(F)(F)F)c(-c2nc3c4c(nc(OC[C@@]56CCCN5C[C@H](F)C6)nc4c2F)N2CCOC[C@@H]2CCO3)c1 [Example 16, 3-chloro-5-((S)-1-fluoro-12-(((2R,7aS)-2-fluorotetrahydro-1H-pyrrolizin-7a(5H)-yl)methoxy)-5,6,6a,7,9,10-hexahydro-4,8-dioxa-3,10a,11,13-tetraazabenzo[4,5]cycloocta[1,2,3-de]naphthalen-2-yl)-4-(trifluoromethyl)aniline]
IC50 [1]: 1.8 nM
IC50 [2]: 1.2 nM

Oc1cc(Cl)c(C2CC2)c(-c2nc3c4c(nc(OC[C@@]56CCCN5C[C@H](F)C6)nc4c2F)N2CCOC[C@H]2CO3)c1 [Example 6, 3-chloro-4-cyclopropyl-5-((S)-1-fluoro-11-(((2R,7aS)-2-fluorotetrahydro-1H-pyrrolizin-7a(5H)-yl)methoxy)-5a,6,8,9-tetrahydro-5H-4,7-dioxa-3,9a,10,12-tetraazabenzo[4,5]cyclohepta[1,2,3-de]naphthalen-2-yl)phenol]
IC50 [1]: 3.7 nM
IC50 [2]: 2.7 nM

C#Cc1c(F)ccc2cc(O)cc(-c3nc4c5c(nc(OCC6(CN7CCOCC7)CC6)nc5c3F)N3CCOC[C@H]3CO4)c12 [Example 8, (S)-5-ethynyl-6-fluoro-4-(1-fluoro-11-((1-(morpholinomethyl)cyclopropyl)methoxy)-5a,6,8,9-tetrahydro-5H-4,7-dioxa-3,9a,10,12-tetraazabenzo[4,5]cyclohepta[1,2,3-de]naphthalen-2-yl)naphthalen-2-ol]
IC50 [1]: 1.1 nM
IC50 [2]: 0.89 nM

N#Cc1c(N)sc2c(F)ccc(-c3c(Cl)c4c5c(nc(OC[C@@]67CCCN6C[C@H](F)C7)nc5c3F)N3CCOC[C@@H]3CCO4)c12 [Example 18]
IC50 [1]: 0.98 nM
IC50 [2]: 0.91 nM

N#Cc1c(N)sc2c(F)ccc(-c3c(Cl)c4c5c(nc(OC[C@@]67CCCN6C[C@H](F)C7)nc5c3F)N3C5CCC3(COC5)CO4)c12 (stereo partly drawn) [Example 15, 2-amino-4-(11-chloro-9-fluoro-7-(((2R,7aS)-2-fluorotetrahydro-1H-pyrrolizin-7a(5H)-yl)methoxy)-3,4-dihydro-1H,13H-4,13a-ethano[1,4]oxazino[3′,4′:3,4][1,4]oxazepino[5,6,7-de]quinazolin-10-yl)-7-fluorobenzo[b]thiophene-3-carbonitrile]
IC50 [1]: 2.1 nM
IC50 [2]: 2.3 nM

N#Cc1c(N)sc2c(F)ccc(-c3cc4c5c(nc(OC[C@@]67CCCN6C[C@H](F)C7)nc5c3F)N3CCOC[C@H]3CO4)c12 [Example 1, 2-amino-7-fluoro-4-((S)-4-fluoro-2-(((2R,7aS)-2-fluorotetrahydro-1H-pyrrolizin-7a(5H)-yl)methoxy)-8a,9,11,12-tetrahydro-8H-[1,4]oxazino[3′,4′:3,4][1,4]oxazepino[5,6,7-de]quinazolin-5-yl)benzo[b]thiophene-3-carbonitrile]
IC50 [1]: 1.3 nM
IC50 [2]: 0.93 nM

C#Cc1c(F)ccc2cc(O)cc(-c3nc4c5c(nc(OC[C@@H]6C[C@@H](F)CN6C)nc5c3F)N3CCOC[C@H]3CO4)c12 [Example 7, 5-ethynyl-6-fluoro-4-((S)-1-fluoro-11-(((2S,4R)-4-fluoro-1-methylpyrrolidin-2-yl)methoxy)-5a,6,8,9-tetrahydro-5H-4,7-dioxa-3,9a,10,12-tetraazabenzo[4,5]cyclohepta[1,2,3-de]naphthalen-2-yl)naphthalen-2-ol]
IC50 [1]: 1.9 nM
IC50 [2]: 1.1 nM

Source: patent US20250262222A1, “HETEROCYCLIC COMPOUNDS, COMPOSITIONS THEREOF, AND METHODS OF TREATMENT THEREWITH” (BeiGene Switzerland GmbH, priority 2022, published 2025)
